What was measured:
F*-p40 = target: T1, F*-p40; experiment: fluorescence anisotropy
T1 chain: APTYSPPPPP

F*-PLLP = target: T2, F*-PLLP; experiment: fluorescence anisotropy
T2 chain: LASRPLPLLP

Kd (F*-p40): 55 µM | Kd (F*-PLLP): > 1000 µM
B1: C100W Abl SH3 SH3 (protein)
chain: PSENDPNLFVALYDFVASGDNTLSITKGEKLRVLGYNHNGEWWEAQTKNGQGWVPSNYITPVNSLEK

— article PMC11653366 (2024)
